Experimental findings from the supplement of paper PMC11417369 are described below.

± gives the standard deviation of the averaged measurements. Some of the results follow.

The assay has as its system PfAP2-G AP2 domain (GST-tagged). The assay is described as follows: gcPBM binding intensity (ln(normalized median fluorescence intensity)); higher = stronger DNA binding. Put shortly:
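An Agilent 4 × 180k array carrying primer-extended double-stranded 36-bp intergenic genomic probes and negative controls received GST-tagged P. falciparum DNA-binding domains expressed in E. coli, about 25 μg on average, for 1 h. The binding buffer contained 1× PBS, 1% milk, 0.2 mg/ml BSA, 0.5% salmon testes DNA and 0.03% Triton X-100. Binding intensity is the top Masliner-normalised natural-log median intensity across replicate spots of either probe orientation, read after Alexa488 anti-GST antibody staining and a 488 nm scan.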
“TTAATTATTATATAAGTGCAATAATAAAAAGTTGTA [GTGCAC_site9552]”: the “gcPBM binding intensity (ln)” value amounted to 10.1 ± 0.3.
For “TTGTTAATAAATAAATAAATAAATATATTTATATAT [GTGCAC_negctrl_site271]” the value was 9.78 ± 0.45.
As for “AATATATATATATGTACACACTCCAATACATATACA [CACACA_site2682]”, the figure is 11.3 ± 0.83; as for “AATTTATTTTTTTAATGTACATATGGTATAAATATA [XGTACX_site8012]”, 11.3 ± 0.79; as for “TGTTGATTTCTCAAATGTACTTTACTTTTCTTCAGA [XGTACX_site7916]”, 11 ± 0.64.
As for “TTTTTTTTTTTTAATTGTACATTTTATATAAACTTT [XGTACX_site6806]”, the figure is 10.8 ± 0.75.
Take “TCTTTTTAAATTACTATAATACATTCATAAATTATA [GTGCAC_negctrl_site448]”: the “gcPBM binding intensity (ln)” value was determined as 9.89 ± 0.071.
In the case of “TTAAGAATATCTTAGAGTACATTTTATCATCTTAAA [XGTACX_site8298]”, the “gcPBM binding intensity (ln)” value was 11 ± 0.68.
As for “AGGGAATAAGTAAGGTGTACATAATTATGTTACTTT [XGTACX_site6152]”, the figure is 11.5 ± 0.74; as for “TTTTTTTATTTTATAAAGCAAAAATAAGAATGAAAT [XGTACX_negctrl_site270]”, 10 ± 0.25.
Turning to “TATATGTATGTATGTACACACAAAAAATGGAATATA [CACACA_site3717]”, the “gcPBM binding intensity (ln)” value worked out at 11.6 ± 1.
For the sequence “TTTTGATTAAGTGAATTTTTTTATTTATATAAATAT [TGCATGCA_negctrl_site479]”, the “gcPBM binding intensity (ln)” value worked out at 9.7 ± 0.17.
As to “AATATAAATACTCCTACACACATATAAATATAAATA [CACACA_site7419]”, the “gcPBM binding intensity (ln)” value stood at 10.3 ± 0.35.
Turning to “TCCACATTAATGTAATGTACAAAATTAGAAAATAAA [XGTACX_site6287]”, the “gcPBM binding intensity (ln)” value came out at 10.7 ± 0.42.
As for “AATTAGCTCAAAGGTTGTACAAATATATTTTAATGG [XGTACX_site2352]”, the figure is 11.2 ± 0.64.
As for “TTTTAAACACCAATCAAAAAAATATAAATATAAATA [TGCATGCA_negctrl_site552]”, the “gcPBM binding intensity (ln)” value was 9.74 ± 0.071.
For “CATACATACATATATACACACATATATAATAATATA [CACACA_site2678]” the value was 10.1 ± 0.2; for “TACGAATTAAAAAAGAGTACAAATAAAATATCTACA [XGTACX_site7412]”, 11.3 ± 0.84; for “AAAAAAAATAATTTGCGTACATAAAAATTTATAGGA [XGTACX_site3016]”, 11.6 ± 0.94.
For “AAATTTTTTTTTGTCATATGATGTTTGAACCCAAAT [CACACA_negctrl_site1659]” the value was 10.3 ± 0.42; for “TCCGTATATTTATACGCATGCATTATGAACATTGTT [TGCATGCA_site613]”, 10.07 ± 0.071.
In the case of “TTACATTGTAAAAAGTGTACATATAATTTAATTAAT [XGTACX_site1834]”, the “gcPBM binding intensity (ln)” value was 11.4 ± 0.98.
Take “ATGTAGACTGAAACCACACACACATATATATATATA [CACACA_site606]”: the “gcPBM binding intensity (ln)” value is 10.3 ± 0.23.
With “GGATTACAAATAGGTTGTACGTTTTTTTTTTTTTCT [XGTACX_site3605]”, the “gcPBM binding intensity (ln)” value was 11.4 ± 0.81.
As for “AATTTTTTAAATGTGTGTACATATTATTTAAATAAT [XGTACX_site5967]”, the figure is 11.5 ± 0.73.
As for “TTTTTTACAATTAACACACTCAAAAATAATATTAAA [CACACA_site5198]”, the figure is 10.1 ± 0.14.
For the sequence “AATCACAACGAACACACACACAAAAAAAAAAAAAAA [CACACA_site6790]”, the “gcPBM binding intensity (ln)” value was 10.1 ± 0.57.
Regarding “TATATTATATATATATGTACATATGGCAAAACATTA [XGTACX_site7958]”, the “gcPBM binding intensity (ln)” value was found to be 11.2 ± 0.83.
As for “AAAAAAAAAAAAAAATGTACCCATAAAATAAGCATT [XGTACX_site8576]”, the figure is 11.4 ± 0.94; as for “ATATATATATCTAATTGTACATATTTTATAAATAAG [XGTACX_site4840]”, 11 ± 0.52; as for “ATAAATATATTTATATGTACATATAATTTTACATAT [XGTACX_site5440]”, 11.4 ± 0.67.
With “TATAATCTAACATAATGTACATGTATATGCACTTTA [XGTACX_site369]”, the “gcPBM binding intensity (ln)” value came to 10.8 ± 0.45.
Regarding “AAAAATTAAATGTACACACACCTTAAACAATGTCAT [CACACA_site6958]”, the “gcPBM binding intensity (ln)” value was 11.4 ± 0.98.
For “AAATACTGATTTGGTTGTACATGTGCACTATATAAC [XGTACX_site3795]” the value was 11.3 ± 0.79; for “TTTTGGATGTATTATACATGCATATTATTATAATAT [TGCATGCA_site997]”, 9.945 ± 0.092; for “AAAAAAAAAAAAAAAAAAAAAAAAATCACACATTGG [TGCATGCA_negctrl_site412]”, 10.9 ± 0.42.
On to “AGAAAAGAAATTAAATGTACACAACTATAACCAAAT [XGTACX_site8084]”, for which the “gcPBM binding intensity (ln)” value is 11.3 ± 0.73.
For “TGTACAACAATTTTTGCACACACCAAAACATAAAAT [CACACA_site1598]” the value was 11.1 ± 0.2.
For “ATATATCTACAAATATGTACACACACACATATATAT [XGTACX_site1075]” the value was 11.3 ± 0.67; for “TTTTATAAAATATAATATAATAATATATGTATAATA [CACACA_negctrl_site1788]”, 9.76 ± 0.13; for “TCATATGTGAAACACACACACACACCCAAAAAAACA [CACACA_site3247]”, 10.3 ± 0.41.
Consider “TGTTTCTTATTTTTTTCACACACTAATCATTTCAAA [CACACA_site8695]”, for which the “gcPBM binding intensity (ln)” value worked out at 10.2 ± 0.16.
For “ATTATGTTATTATTTTGTACACATAAATAATACGTT [XGTACX_site816]” the value was 11.2 ± 0.69; for “GAACAAAAATACTTATGTACACATTAGCAAGGAAAA [XGTACX_site5622]”, 11.3 ± 0.73; for “TGTTAATTTCATTTTCTACACACCTATCCTTTTTTT [CACACA_site8157]”, 10 ± 0.11.
As for “ACAAATAAATATTCGCGTACTTATATAATATTACGA [XGTACX_site6428]”, the figure is 11.4 ± 1; as for “AACAAACAAATAGTTTATTTTGATTTTTTTAAAAAT [CACACA_negctrl_site693]”, 9.75 ± 0.2; as for “AAACAAAAAAGAAGCACACATATATATATATATATG [CACACA_site2456]”, 10.2 ± 0.23.
For “TATACGCATATATACACACACATATATATATATATA [CACACA_site3416]” the value was 10.2 ± 0.3.
With “ATCTGAAAAATTAATAGTACAATTAATAATTAAACC [XGTACX_site8523]”, the “gcPBM binding intensity (ln)” value came out at 10.9 ± 0.7.
For “AAAAAAAATATCCGACGTACTATTTTCGTAGAAATA [XGTACX_site6292]” the value was 10.9 ± 0.56; for “AACTAATAAAAAAAAAAAACATTAAACAGGACAAAT [XGTACX_negctrl_site287]”, 10.1 ± 0.078.
Take “TAAACAAATAAATAAACACACAATATAGGTATATAT [CACACA_site7739]”: the “gcPBM binding intensity (ln)” value came to 9.73 ± 0.25.
Consider “TTATTTTTAACGTACGCACACATATAAATATATTTA [CACACA_site1976]”, for which the “gcPBM binding intensity (ln)” value was 11.5 ± 0.97.
As for TAAAATATATTGCCAGTGCATAATATATGTAATTAT, the figure is 9.93 ± 0.11; as for “TTTTTTAAATATTAAAAATGGGATCTTATAACATAT [GTGCAC_negctrl_site666]”, 10 ± 0.2.
